The labels stand for the following.
T1: UNK ZnF1-6 (called full-length) (human, UniProt Q9C0B0 30-357)
T1 sequence: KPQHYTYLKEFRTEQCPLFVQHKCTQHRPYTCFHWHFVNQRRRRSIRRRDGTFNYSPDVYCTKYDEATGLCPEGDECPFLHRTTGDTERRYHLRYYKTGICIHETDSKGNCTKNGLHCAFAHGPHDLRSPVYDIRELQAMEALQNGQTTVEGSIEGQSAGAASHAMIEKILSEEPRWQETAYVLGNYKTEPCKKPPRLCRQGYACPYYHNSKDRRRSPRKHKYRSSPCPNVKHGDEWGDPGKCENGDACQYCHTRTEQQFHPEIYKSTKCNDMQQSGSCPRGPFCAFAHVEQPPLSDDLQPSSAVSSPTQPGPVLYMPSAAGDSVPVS

B1: ENSG00000070961:be:win_2901|CDS|ENSG00000070961|bound_else_gene|NA|bound_elsewhere_windowed (ssRNA)
RNA: GGGAGUUCUACAGUCCGACGAUCUCCUUCAGAACAUUAUACUAUUGUUUUUAAUACCUUUGUGCUGAUGCAACUUUUCAACGAAAUAAAUGCCCGGAAAAUUCAUGGUGAAAGAAAUGUAUUCGAAGGAAUCUUUAACAAUGCCAACAGAGGAUUGAGCAUCA
B2: chr4:38700566:38700667:+|3pUTR|ENSG00000109787|unk|FALSE|unique (ssRNA)
RNA: GGGAGUUCUACAGUCCGACGAUCUACAAAGCCAUCUUUACAUGCAUUAAACGAGGGCUACAACAAUAUUGUUUUACAAAUACUAGCACUUUUUUUUCUGUUAUGUACUUAGUGUUAGAGGGUCAAAAUAAUCUUUCUGCUUAGCAACAGAGGAUUGAGCAUCA
B3: chr1:246839951:246840052:-|3pUTR|ENSG00000153207|msi1|total|mutant (ssRNA)
RNA: GGGAGUUCUACAGUCCGACGAUCAAAUGUAAAAUAAAUCUGUUUAUGGAUAUUGAGUGCAUCUUGUAUGUGCCUAAUAUUGACCGGAUGAGAUGUCUGAACAAAUUUUUAUAAUAUUGCUGUGAAGGAGCUUGCUAUUGAACCCAACAGAGGAUUGAGCAUCA
B4: chr3:48658964:48659065:-|CDS|ENSG00000008300|msi1|FALSE|unique (ssRNA)
RNA: GGGAGUUCUACAGUCCGACGAUCCGAUGUCUCCGACCACCUCUUCUACUCCUUUGAGCGUGGCAAUGAGCUGCAGCUGCUGGUAGUCAACCAGACCAGUGGGGAGCUGCGACUCAGCCGAAAGCUAGACAAUAACCGCCCACUCAACAGAGGAUUGAGCAUCA
B5: chrX:71300841:71300885:+|3pUTR|ENSG00000147140|msi1_unk|total|mutant (ssRNA)
RNA: GGGAGUUCUACAGUCCGACGAUCCCCCAUAUAUUACCCCUUCAUGUCCUAAAGAAGACAUUUUCUCUCCGAGAUUUUCAUUUCCGUGUAUCUUUAAAAAAAAAUCUUGUGUUAACUUGCCUCCAUCUUUUUCUUGGGUGAGGACAACAGAGGAUUGAGCAUCA
B6: chr7:92086252:92086353:+|CDS|ENSG00000127914|msi1|total|mutant (ssRNA)
RNA: GGGAGUUCUACAGUCCGACGAUCUCAUGAGAGCUUCUCAGACUGGCGAGGUGAACUACUGCUUGCCCUUCAACAAGUUUUCUCCGAAGAGCGCCGUGUUUUACCCGCAGCAUUUCGGACGGAGCUGACAGCUCCCGGUACUACCAACAGAGGAUUGAGCAUCA
B7: chr3:15667380:15667481:-|3pUTR|ENSG00000206560|msi1|FALSE|bound_elsewhere (ssRNA)
RNA: GGGAGUUCUACAGUCCGACGAUCUAUACAUAAAAGAUGACAUCUGAAAUAUCUGAUGUGUAUUAUAAUACCAGCUUCUGCUCUAGAACUACUUUGGGUGAAAUGGUGGUAAUAGCAAAUGACCUCCUUUAACAAGACACUCAUCAACAGAGGAUUGAGCAUCA
B8: chr1:16124349:16124452:-|3pUTR|ENSG00000142627|msi1|total|mutant (ssRNA)
RNA: GGGAGUUCUACAGUCCGACGAUCUUUGUUUUGUUGGACAUUUUUUUCGAAUCUUAAUUUAUUAUUUUUUUUAUAUUUAUUGUCCGAAAAUGACUUAUUUCUGCUCUGGAAUAAAGUUGCAGAUGAUUCAAACCGAUCUUGGCUCAACAGAGGAUUGAGCAUCA
B9: chr8:103332422:103332528:+|3pUTR|ENSG00000164930|msi1|total|mutant (ssRNA)
RNA: GGGAGUUCUACAGUCCGACGAUCUUUUUUAACAUUCCGAAUAUUACAUUUUGUAUUAUACAGUACCUUUCUCAGACAUUUUGCCGAAUUCAUUUCGGCAGCUCACCCGGAUUUUGCUGAACAUUAAAAAGUGUGACCGCGAUACAACAGAGGAUUGAGCAUCA
B10: ENSG00000135454:stop:overlap|stop_codon|ENSG00000135454|stop_codon|NA|stop_codon (ssRNA)
RNA: GGGAGUUCUACAGUCCGACGAUCAGCGCGUUAGUGGCCCCUACGUGGAACACUAUCUCAUGCCCUUCGGCAAGGUGUGCAGCUAGCAGGCUGAACGGCAGGCCAGAGGACUCCCGCAGGGGGUGUGCCCUCAAUCUGCAGCCUCAACAGAGGAUUGAGCAUCA
B11: chr7:113918214:113918996:-|CDS|ENSG00000154415|control|control|control (ssRNA)
RNA: GGGAGUUCUACAGUCCGACGAUCUGAGAAGUUAGUAUAUGUAAGAAUGUCUUUAGAUGACUGGCAGACACAUUAUGACAUUUUAGCAGAAUAUGUUCCUAAUUCAUGUGAUGGUGAAACUGACCAGUUCUCCUUUAAGAUUGUCAACAGAGGAUUGAGCAUCA
B12: chr11:75562225:75562326:+|5pUTR|ENSG00000149257|msi1|FALSE|unique (ssRNA)
RNA: GGGAGUUCUACAGUCCGACGAUCGCAGGAGGGGGUGGGGACUGCCAUAUAUAGAUCCCGGGAGCAGGGGAGCGGGCUAAGAGUAGAAUCGUGUCGCGGCUCGAGAGCGAGAGUCACGUCCCGGCGCUAGCCCAGCCCGACCCACAACAGAGGAUUGAGCAUCA
B13: chr16:33844783:33845086:-|CDS|ENSG00000259680|control|control|control (ssRNA)
RNA: GGGAGUUCUACAGUCCGACGAUCAGCUGGGUCCGCCAGGCUCCAGGGAAGGGACUGGAGUGGAUUUCAUACAUUAGUGGUGAUAGUGGUUACACAAACUACGCAGACUCUGUGAAGGGCCGAUUCACCAUCUCCAGGGACAACCAACAGAGGAUUGAGCAUCA
B14: chr9:21239001:21239365:-|three_prime_utr|ENSG00000228083|control|control|control (ssRNA)
RNA: GGGAGUUCUACAGUCCGACGAUCCAAAAUUUUCAAAUGUUUUCAGGAGUGUAAAGAAGCAUCAUGUAUACCUGUGCAGGCACUAGUCCUUUACAGAUGACCAUGCUGAUGUCUCCUUUCAUCUAUUUAUUUAAAUAUUUAUUUCAACAGAGGAUUGAGCAUCA
B15: chr5:119149357:119149458:+|CDS|ENSG00000172869|msi1|total|mutant (ssRNA)
RNA: GGGAGUUCUACAGUCCGACGAUCCUGGGAGAGUACCAAAGUUGUGCCCCUUUCUAAAUUUGUACUAUUACGAAGUGUGGACCCCGUUUCUUCUGCCGAUGGCUCCCCACCUUUUCCUGUUUCUUUAUCGUGGGUCCGGGAUGGCAACAGAGGAUUGAGCAUCA
B16: chr14:63372511:63372612:-|3pUTR|ENSG00000154001|unk|total|mutant (ssRNA)
RNA: GGGAGUUCUACAGUCCGACGAUCUGGGGAUGAGGGUGGGAUGGGAAAGGGAUGUAUGGAUGUUAUUGGCAUUUUUAAGUGUUCCGAGUUUUUUGGGGUUUGGGGUGGUUUUUUUUCCUUGUUUUCCUUUUUUCCUUUUAAUUGCAACAGAGGAUUGAGCAUCA
B17: chr13:45957189:45957298:-|CDS|ENSG00000123200|unk|total|mutant (ssRNA)
RNA: GGGAGUUCUACAGUCCGACGAUCUGUUUUUGUUUUCUUCAAACCGGGCACCAUAAAACAAGCUUACACGAGUGCUCCAAUGGCCGACAAUGAAUUACUUCGAUUGAGUCUUCGGUUAUUUAAGCGGAAGACUACUUGCCAUGCCAACAGAGGAUUGAGCAUCA
B18: chr22:38736040:38736148:-|3pUTR|ENSG00000100242|msi1|total|mutant (ssRNA)
RNA: GGGAGUUCUACAGUCCGACGAUCCCCCAUGCAGAUGAAAAGGACGGGCAGGGUCUCCUGAGCAGCAGGUGGCUCGAGGCGGUCCGCAGGCUCCAGCAGCUCCCUUCUUCCUUCCCUCUGUGCCCGUGGCGUCUGCUUCCCAUCCAACAGAGGAUUGAGCAUCA
B19: chr1:23091194:23091296:-|CDS|ENSG00000169641|unk|FALSE|unique (ssRNA)
RNA: GGGAGUUCUACAGUCCGACGAUCCUCCAGAAGGACCCAAAGUAGCCUCACUGUGUCAGAGGUGCUUACCCGUCGGAAUCGGGUAGGAGACACCAUCACUGUCGCAGCCUGGAACCACUCAGCAAGCAUGGUGAGUUCCAGCCUCAACAGAGGAUUGAGCAUCA
B20: chr1:9614578:9614679:+|3pUTR|ENSG00000188807|msi1|FALSE|unique (ssRNA)
RNA: GGGAGUUCUACAGUCCGACGAUCUCCAGCUGCCAGCAAUGGUUCCAACUCGGAGGCAGCGCCUCUUGGUCCCCAUUUCUGUAUAGCAGGCGUGUGUGUGUGUGUCGAGGUUUUUUAUUUUUUGCUUAAUCAAACUCCAUUCCCCAACAGAGGAUUGAGCAUCA
B21: chr9:111714444:111714623:-|CDS|ENSG00000165181|control|control|control (ssRNA)
RNA: GGGAGUUCUACAGUCCGACGAUCAGCAUUUUAGGCCCCUAUUUGGGUGACAUUUGGAGACAGCUGGAGAUUGUACAGUUUAUUAGGGGGAAAAAGCCUGAAACCAACUACAAGAUACAAGAAUUGCAAUGUCAGAUACUAAGUCAACAGAGGAUUGAGCAUCA
B22: chr19:41261474:41261596:+|3pUTR|ENSG00000167601|msi1|FALSE|unique (ssRNA)
RNA: GGGAGUUCUACAGUCCGACGAUCUCUAAAGGUCCACAGGUCUAGACUAUUAGGUGCAAUUUCAAGGUUCUAACCCUAUACUGUAGUAUUCUUUGGGGUGCCCCUCUCCUUCUUAGCUAUCAUUGCUUCCUCCUCCCCAACUGUCAACAGAGGAUUGAGCAUCA

The list shows a part of the results.

This experiment concerns the target T1, UNK ZnF1-6 (called full-length). Description: nsRBNS (natural sequence RNA bind-n-seq); RBNS binding buffer (assumed for nsRBNS): 25 mM Tris pH 7.5, 150 mM KCl, 3 mM MgCl2, 0.01% Triton X-100, 500 ug/ml BSA, 20 U/ml SUPERase-In, 4 C; UNK is unkempt and MSI1 is Musashi-1; names of the RNAs are library labels; protein concentration not given here; high values mean tight binding.
B1 showed a binding signal of 0.356 enrichment R. Then B2, with 1.1 enrichment R. The molecule B3 displayed a binding signal of 0.415 enrichment R. Then B4, with 0.652 enrichment R; and B5, with 0.727 enrichment R; and B6, with 0.462 enrichment R. Next, B7: 0.4 enrichment R; B8: 1.52 enrichment R. In turn, B9 yielded a binding signal of 0.422 enrichment R. Turning to B10, the binding signal stood at 1.21 enrichment R.

For B11, the binding signal was determined as 1.02 enrichment R. Then B12, with 1.28 enrichment R. On to B13, for which the binding signal came out at 0.725 enrichment R. Then B14, with 0.917 enrichment R; and B15, with 0.967 enrichment R. Next, B16: 1.7 enrichment R; B17: 0.325 enrichment R. Then B18, with 1.02 enrichment R; and B19, with 0.389 enrichment R; and B20, with 0.814 enrichment R.

Molecule B21 registered a binding signal of 0.757 enrichment R. Take B22: the binding signal was 1.44 enrichment R.
